Experimental data reported in PubChem BioAssay AID1508623 (National Center for Advancing Translational Sciences (NCATS), 2021).
About 450 (0.94%) of roughly 48,000 compounds were called active. Roughly 19% stayed inconclusive and do not appear here. Calls come from the whole dose curve; as a rule, active = well fitted inhibition curve with a large enough effect; inconclusive = small, poorly fitted or top-dose-only effect; inactive = no such curve, though single readings can be large or run the other way. The list shows a part of the results.

Assay: Primary qHTS for Identification of Small Molecule Inhibitors of Huntingtin Promoter Activity; note: nearly all actives have a fitted effect of over 50% in size
Conditions: HEK293 HTT promoter firefly luciferase reporter (activity 0% = vehicle and -100% = no light), 24 h; series mostly up to 57.5 µM; activity change, negative = inhibition: at the top concentration
Method in brief: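 HEK293 cells carrying firefly luciferase reporters were seeded at 2,500 per well in Opti-MEM and cultured for 24 h. They were then treated with compounds at up to 57.5 uM final for 24 h at 37 degrees C before Dual-Glo luminescence readout.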

Activity change, negative = inhibition, inactive:
COc1ccc2c(c1)c1c(c(=O)n(Cc3ccccc3)c(=O)n1Cc1cc(C)ccc1C)n2C -10%
Cc1nn2c(=O)cc(COC(=O)c3ccccc3NC(=O)c3ccccc3C)nc2s1 38.2%
CC(C)C[C@H](NC(=O)[C@H](CCc1ccccc1)NC(=O)CN1CCOCC1)C(=O)N[C@@H](Cc1ccccc1)C(=O)N[C@@H](CC(C)C)C(=O)[C@@]1(C)CO1 -50%
Cc1ccc(S(=O)(=O)N2CCCC(c3nc4c(nnn4Cc4ccc(OC(F)(F)F)cc4)c(=O)[nH]3)C2)cc1 (stereo not given) -10.1%
CCOC(=O)c1ccc2c(c1)N(Cc1cccc([N+](=O)[O-])c1)C(=O)c1ccccc1S2 -18.6%
CC(=O)Cn1nnc2sc(-c3ccccc3)cc2c1=O 56.6%
COc1ccc(-n2c(C)c([N+](=O)[O-])c3ccc(O)cc32)cc1 -5.1%
COCCNC(=O)c1cc2n(n1)CCCN(Cc1ccc(C)cc1)C2=O -13.2%
CN(Cc1ccccc1)C(=O)c1cc2c(=O)n(C)c3ccccc3c2s1 9.21%
CCOC(=O)N1CCc2c(sc3c2c(=O)n(Cc2ccccc2)c(=O)n3Cc2c(F)cccc2Cl)C1 -21.7%
CSc1cccc(N2C(=O)N(Cc3ccc([N+](=O)[O-])cc3)c3ccccc3S2(=O)=O)c1 -7.45%
O=C1CC(c2nc3ccccc3n2Cc2c(F)cccc2Cl)CN1c1cccc(C(F)(F)F)c1 (stereo not given) -15.4%
COc1ccc(CC(=O)Nc2c(C(=O)Nc3ccccc3F)oc3ccccc23)cc1 -4.35%
COc1ccc(NC(=O)CC2C(=O)N(c3ccc(C)cc3)C(=O)N2CCc2ccccc2)cc1 (stereo not given) -33.7%
Brc1ccc(-c2cc3c(N4CCN(c5ccccc5)CC4)nccn3n2)cc1 -7.99%
O=C(O)c1[nH]n(-c2ccc(S(=O)(=O)O)cc2)c(=O)c1N=Nc1ccc(S(=O)(=O)O)cc1 2.19%
Cc1ccccc1NC(=O)c1sc2nc(-c3ccncc3)ccc2c1N -28.1%
CCOC(=O)c1ccc(N2C(=O)c3n[nH]c(-c4cccs4)c3C2c2ccc(C)cc2)cc1 (stereo not given) 0.594%
CCCN(CCC)CCCNC(=O)Cn1ncc2c3ccccc3n(Cc3ccc(F)cc3)c2c1=O -15.3%
Cc1nc(C)c(-c2ccc(SCC(=O)Nc3ccccc3F)nn2)s1 18.1%
COCCCNC(=O)CCCn1c(=O)c2cccn2c2cccnc21 -7.76%
COc1cccc(CNC(=O)CCNS(=O)(=O)c2cccc3nsnc23)c1 -9.97%
Cc1cc2ccccc2n1-c1ccc(C(=O)N2CCCCC2)s1 -17%
CCn1cc(S(=O)(=O)c2ccccc2)c(=O)c2cc(C)ccc21 -22.5%
CCOC(=O)c1[nH]c2ccccc2c1NC(=O)c1ccc(OC(C)C)cc1 14.9%
COc1cc(OC)cc(C(=O)Nc2ccc(S(=O)(=O)Nc3cc(C)nc(C)n3)cc2)c1 16.6%
COc1ccc(CCN2CC(C(=O)NCCc3ccc(C)cc3)CC2=O)cc1OC (stereo not given) -28.3%
CCCCn1c(COc2cccc(OC)c2)nc2ccccc21 -3.15%
NC(=O)N/N=C/c1ccc([N+](=O)[O-])o1
CC(C)NC(=O)c1ccc(-n2c(-c3ccccc3)cc3c2CCCCC3)cc1 12.9%
COc1ccc(Cl)cc1NC(=O)Cn1cc(C(=O)c2ccncc2)c(=O)c2cc(C)ccc21 -19.9%
Nc1ncc(S(=O)(=O)NCc2ccc(Cl)cc2)cn1 -3.75%
CCC(Sc1nc2cc(OC)c(OC)cc2c(=O)n1CCc1ccc(Cl)cc1)C(=O)NCCOC (stereo not given) -4.65%
Cc1cc(C)cc(OCC(=O)Nc2ccc(-c3nc4ccccc4s3)cc2)c1 40.4%
Cn1nnc2c(N3CCN(c4ccccc4F)CC3)ncnc21 5.55%
Cc1ccccc1C(=O)Nc1cccc(C(=O)OCc2cc(=O)n3c4c(sc3n2)CCCC4)c1 -18.6%
Cc1ccc(-n2c(SCC(=O)NCc3ccc(F)cc3)nc3c([nH]c4ccccc43)c2=O)cc1 -34.2%
Cc1ccc2oc3c(c(=O)c2c1)C(c1ccccc1F)N(CCCN1CCOCC1)C3=O (stereo not given) 13%
COc1ccc(N(CC(=O)NCCc2ccccc2)S(=O)(=O)c2ccccc2)c(OC)c1 -22.1%
Cc1ccc(Nc2c(-c3ccncc3)nc3ccc(C)cn23)cc1 -9.39%
CCOc1ccc(OCC)c(S(=O)(=O)N2CCN(c3cccc(C)c3C)CC2)c1 -2.22%
CCOC(=O)C1CCN(c2ncnc3c2nnn3C)CC1 -7.65%
Cc1ccc(CN(C(=O)COc2cccc([N+](=O)[O-])c2)c2ccccn2)cc1 -38.8%
Cc1cc(C)cc(N2CCn3c2nc2c3c(=O)n(Cc3ccc(Cl)cc3)c(=O)n2C)c1 -8.12%
CC(C)c1ccc(CNc2nc(-c3ccco3)nn2S(=O)(=O)c2ccc3ccccc3c2)cc1 18.1%
O=S(=O)(c1ccccc1)c1nc(-c2ccc(Cl)cc2Cl)oc1N1CCCCCC1 -18.6%
CC(=O)N[C@@H](CCC(=O)O)C(=O)O -0.213%
CN(C)CCC[C@@]1(c2ccc(F)cc2)OCc2cc(C#N)ccc21 -9.7%
COc1ccc(CNC(=O)Cn2nnc(-c3ccc(S(C)(=O)=O)cc3)n2)cc1 -7.18%
COc1cccc2c1cc1c(=O)n(CC(=O)N3CCN(c4cc(Cl)ccc4C)CC3)nc(C)n12 -7.77%
CCC1CCCCN1CC(=O)N1CCCc2c1c(=O)oc1ccc(OCc3ccccc3)cc21 (stereo not given) -38.8%
CCOc1ccc(-n2c(C)nc3cc(C(=O)NCCC4=CCCCC4)ccc32)cc1 5.3%
COc1ccc(CNC(=O)CCC(=O)N2CCSc3ccccc32)cc1 -0.797%
CCCC1OC2C[C@@H]3[C@H]4CCC5=CC(=O)C=C[C@]5(C)[C@H]4C(O)C[C@]3(C)[C@]2(C(=O)CO)O1 (stereo not given in full) -5.92%
CCOC(=O)c1ccc(NC(=O)C2=C(C)Nc3nc(SCc4ccc(Cl)cc4)nn3C2c2ccc(OC)cc2)cc1 (stereo not given) -4.13%
Cc1ccccc1NS(=O)(=O)c1ccc(Br)s1 -17.8%
COc1ccc(-c2nc3sc(CCNC(=O)c4cc(Cl)ccc4OC)c(C)n3n2)cc1 24%
CN(Cc1ccccc1)S(=O)(=O)c1ccc(F)c(C(=O)Nc2cccc(Cl)c2Cl)c1 -6.09%
Cc1ccc(C(C)(C)C)c(OCC(=O)NCCc2nc3ccccc3[nH]2)c1 4.12%
CCN(CC)c1cc2c(cc1F)c(=O)c(S(=O)(=O)c1cc(C)ccc1C)cn2Cc1ccccc1 -20.9%
CCOc1ccc(C2=NC(c3cccs3)=Nc3ccc(C(C)C)cc3N2)cc1 3.37%
CCOc1ccccc1-n1nnc(-c2nc(-c3ccccc3)no2)c1N 36.6%
Cc1c(/C=C(\C#N)C(=O)Nc2cccc(Cl)c2)c2ccccc2n1Cc1ccccc1Cl -23.3%
CCOC(=O)c1cccc(NC(=O)C2CCN(S(=O)(=O)c3ccc4c(c3)oc(=O)n4C)CC2)c1 -21.1%
COc1ccccc1N1CCN(c2ncnc3c2cnn3C)CC1 -3.67%
CCc1ccc(C(=O)COC(=O)C(Cc2c[nH]c3ccccc23)NC(=O)c2ccc(Br)cc2)cc1 (stereo not given) -3.12%
CCc1cccc(C)c1NC(=O)Cn1ccn(-c2ccc(F)cc2)c(=O)c1=O -11.7%
CCOc1ccc(C2CC(=O)c3c([nH]c(C(=O)OCc4ccccc4)c3C)C2)cc1 (stereo not given) -27.8%
COc1ccc(CCN2C(=O)c3oc4ccc(F)cc4c(=O)c3C2c2ccc(C(C)(C)C)cc2)cc1 (stereo not given) -9.6%
O=C(CSc1nc(-c2ccccc2)no1)N1CCCCC1 -2.11%
COc1ccc(C(=O)CN2C(=O)N(c3ccc(C(C)=O)cc3)S(=O)(=O)c3ccccc32)cc1 -20.7%
Cc1ccc(Cn2nnc(C(=O)Nc3ccc(F)c(F)c3)c2N)cc1 -16.6%
COc1ccc(S(=O)(=O)N2CCC(n3c(C(F)(F)F)nc4cccnc43)CC2)cc1OC -35.6%
CCOc1ccccc1-n1cc2c(c1-c1ccc(OC)cc1)c(=O)n(C)c(=O)n2C -4.18%
Cc1ccc(N(C)C(=O)C2CCN(S(=O)(=O)c3ccc4c(c3)CCCN4C(=O)C3CCC3)CC2)cc1 -4.57%
COC(=O)c1ccc(NC(=O)CN2CCN(c3ccc(Cl)cc3)CC2)cc1 -15.1%
O=C1CC(c2ccccc2)Cc2[nH]c(=O)c(C(=O)Nc3cccc(Cl)c3)cc21 (stereo not given) -5.47%
COc1ccc(NC(=O)c2cn(-c3ccccc3)nc2-c2ccc(C)cc2)cc1 5.75%
CN1CCCC(n2nc(Cc3ccc(Cl)cc3)c3ccccc3c2=O)CC1 (stereo not given)
O=C(CSc1nc2ccccc2nc1Cc1ccccc1)Nc1ccc2c(c1)OCO2 -6.29%
CCCOC(=O)CSc1nnc2ccc3ccccc3n12 -2.28%
COc1ccc(NC(=O)c2ccc3c(c2)CCN3S(=O)(=O)c2ccc(C)cc2)cc1Cl -9.23%
CCOC(=O)c1cccc(NC(=O)C(C)n2c(C)c3cnn(-c4ccccc4)c(=O)c3c2C)c1 (stereo not given) -29.1%
Cc1ccc(NC(=O)CN(C)S(=O)(=O)c2ccc3nc(C)sc3c2)c(C)c1 -26.8%
CC(C)NS(=O)(=O)c1ccc2nc(NC(=O)c3cncc(Br)c3)sc2c1 -24.4%
COc1ccc(Cl)cc1NC(=O)CCc1c(C)nc2c(c1C)c(=O)n(C)c(=O)n2C -8.23%
FC(F)(F)C(F)(F)C(F)(F)C(F)(F)C(F)(F)C(F)(F)C(F)(F)C(F)(F)Br 0.0175%
CCCSCCCNC(=O)c1ccc(Cn2c(=O)c3cccn3c3cccnc32)cc1 -4.15%
CCC(=O)N1CCc2cc(S(=O)(=O)CCC(=O)N3CCN(c4ccccc4F)CC3)ccc21 -3.34%
Cc1cc2oc(C(=O)Nc3nc(-c4ccccc4)ns3)c(C)c2cc1Cl 5.43%
CCOc1ccc(CNC(=O)c2sc3nc(C)cc(C)c3c2-n2cccc2)cc1 2.65%
Cc1ccc(NC(=O)CN2C(=O)CCc3cc(S(=O)(=O)N4CCOCC4)ccc32)c(C)c1 -12.2%
CN1CCN(C(CNC(=O)C(=O)Nc2ccc(F)cc2)c2cccnc2)CC1 (stereo not given) 33%
CCC(CC)C(=O)N1CCc2cc(OC)c(OC)cc2C1COc1ccccc1OC (stereo not given) -19.8%
Cc1ccc(C)c(Cn2nnc(C(=O)NCc3ccccc3)c2N)c1 -23.4%
